Publication PMC12136788
The other results are listed elsewhere or left out.

B1: chr11:126104937:126104938:+_ENSG00000197798_ENST00000360194|hu_hu|FALSE|FALSE (ssRNA)
RNA: GGGAGUUCUACAGUCCGACGAUCCUUCCUGGGCUUUUUGGUGGGAGGUUCGCCAUCGUUGAAGAAUCCAAAAAUCUCGUCUAUAUCAGAGGCCUGGCUCCCUGUAGAAGCCAUCCAGUUUCGAGUCUCCUCCAAACGCCACUGCAACAGAGGAUUGAGCAUCA
B2: chr5:32403282:32403283:-_ENSG00000056097_ENST00000265069|hu_mus|motif|central (ssRNA)
RNA: GGGAGUUCUACAGUCCGACGAUCAGAUGUUUUCUUGGCAGCCAUAUUGGUAGGUAUCGCUGACACUUUAGUGUUGGAUGUACGGUUAAGAGACGAGUUUCCUGUAGUUGAAAGACCUUUCACUGAAGAAGUUGCAAUUGAUGACAACAGAGGAUUGAGCAUCA
B3: chr1:163117127:163117128:-_ENSG00000143248_ENST00000313961|hu_mus|hu_hu_hu_mus_False|78_98 (ssRNA)
RNA: GGGAGUUCUACAGUCCGACGAUCUGCUACAAAGGAUGGAGGAAAUAUCACAGGGCAUGAUUUCAUAGCCUGACCAGAUGACUACUUGAUUAGCUCCUUAUAAAAUUCAGAGCGCACAAAGCGGGGCAGAGAAUCCUUCUCCAUCAACAGAGGAUUGAGCAUCA
B4: chr4:76721835:76721836:+_ENSG00000138768_ENST00000264904|hu_mus|hu_hu_hu_mus_True|28_58 (ssRNA)
RNA: GGGAGUUCUACAGUCCGACGAUCGUUUGGCUGGGGUUUCUGAGACGCUCUGGAAUAUAACUCAUGUUUGCUAAUAAUCCUAGUUUCCUCUAUGAAAUUCUCUUUGCAAUCCUCUUCCUCUAUUAGUUGCUUUAGUUUCUCUUUCAACAGAGGAUUGAGCAUCA
B5: 118650776_118652258_1406_CDS_ENSMUSG00000020114_ENSMUST00000020315|mouse|control|control (ssRNA)
RNA: GGGAGUUCUACAGUCCGACGAUCCUUGUAGAACUCCGGGAGCAUCUCAUGCCGUGUGCUAACUACAGCGUCCAGGCACUUAGCAGCCGCGCGUCUCACUUUCCAACUCAUGUCGUCAUCGUCACUAUAUUCAUCGUCACUCCCCAACAGAGGAUUGAGCAUCA
B6: chr7:141450121:141450122:+_ENSG00000106028_ENST00000265304|hu_mus|hu_hu_hu_mus_True|88_98 (ssRNA)
RNA: GGGAGUUCUACAGUCCGACGAUCUCAUCCGUUCUAUUCCUUCUCUUUCGUCUGGUCACUCAGAAAUAUAAUGUUAUCAGCUAUGAUUGUUGUUGCUUGCCGCCUCACAUUGUUUUUAUCCAUGUACUCGCCAUAGUCCACUUUCAACAGAGGAUUGAGCAUCA
B7: chr6:72385097:72385098:-_ENSMUSG00000053907_ENSMUST00000059472|mus_hu|FALSE|FALSE (ssRNA)
RNA: GGGAGUUCUACAGUCCGACGAUCCUGAGAGGUACCAUAAUGGAAAAUGGAGAUAGAUAAUGGAUGAGAAACUCCAAUAGCAUAAGAGACCUGAACAAGAACCCUCCGGCACAGACCUCCUUUAACAAGGGAUUUUGCCACCCACAACAGAGGAUUGAGCAUCA
B8: 245027393_245027513_320_CDS_ENSG00000153187_ENST00000283179|human|control|control (ssRNA)
RNA: GGGAGUUCUACAGUCCGACGAUCUGCUCCCGAGCGCCCAGCGGAAUCCCCGCCCAGGUCUAGGCUGCCGUUCCCGGGCUCCAUGGCGGGGCGGCCCCCGGCCUCCUCGUCGUCCAGCGCAGCCUGGAGUCGCUCCAUGAGCUCCAACAGAGGAUUGAGCAUCA
B9: chr4:41258970:41258971:+_ENSG00000154277_ENST00000284440|hu_hu|motif|central (ssRNA)
RNA: GGGAGUUCUACAGUCCGACGAUCUGAGCUGCAUCUUCGCGGAGCGCCCGGCAGAAAUAGCCUAGGGAAGACGAAAAACAGCGGGCGGAGCCGCCCAGGCUGCAGCUAUAAAGCGCCGGCCAGACGCACUGUGAGGCCUGUGCACAACAGAGGAUUGAGCAUCA
B10: chr10:70718461:70718462:-_ENSMUSG00000019927_ENSMUST00000020085|mus_hu|FALSE|FALSE (ssRNA)
RNA: GGGAGUUCUACAGUCCGACGAUCGUAAAAAUCAAAUGGUUUCAUGGUACAAUGAAACAGUAAACAGUGCUCAAUUUACUGCUAAUGUUGAAAAAAACCUAGAUUUUACAGUACUCUGGUAUAUAUGAAAAUGUUUUUGAUUUUCAACAGAGGAUUGAGCAUCA
B11: 164711283_164711507_869_3pUTR_ENSMUSG00000039849_ENSMUST00000041643|mouse|control|control (ssRNA)
RNA: GGGAGUUCUACAGUCCGACGAUCCGAGCGGAGCAACUCAACAUCAGGGUGUGGAGGCAGGACCUCUGAAGGACCCCUGUGCUUGAUGACAGCAUUGGUCUGGAUGUCCAGGUCCCAGUACACCUCAGUGGGUCGGAGGAGAGCCAACAGAGGAUUGAGCAUCA
B12: chr3:10015032:10015033:+_ENSMUSG00000027533_ENSMUST00000029046|mus_mus|mus_mus_mus_hu_True|8_78 (ssRNA)
RNA: GGGAGUUCUACAGUCCGACGAUCGUUUUUACCAUCACAAGUGAUGAUACAAUCUGGCUUGGCCAUGGCGCCCAUUUUUCGCAAAGCUAUUCCCACUCCUAGCUCCUUCAUGUAUUCAUCAAAGCCUUGGCUUUCCACCAGGCGCAACAGAGGAUUGAGCAUCA
B13: 90399841_90400490_10826_CDS_ENSG00000112159_ENST00000369393|human|control|control (ssRNA)
RNA: GGGAGUUCUACAGUCCGACGAUCCACCAAAAUAUCUGCAAAGUCCUUUUCAUGCAGGGGGAACUGUUUUCUGAACUCCCGUUCUUCCUCCUCCUCUUCACUCAGGGCUGUCCUAGAGUUCCUGCUCCUGUAUCUAUACAGGCCCAACAGAGGAUUGAGCAUCA
B14: 24788528_24788648_645_CDS_ENSG00000090905_ENST00000315183|human|control|control (ssRNA)
RNA: GGGAGUUCUACAGUCCGACGAUCGUUAUUUUGUGGCUGUUGAUUUGUUAAAGCACUGCUUUCUGACUGGCUGUUUAACACCUUAACAGCAGAUCCAAGGUUUGCUGCUAUAACAGGAAAAUGCUGACCCCUCUUUAGAAGCUGCAACAGAGGAUUGAGCAUCA
B15: chr16:50257146:50257147:+_ENSG00000121274_ENST00000436909|hu_mus|motif|central (ssRNA)
RNA: GGGAGUUCUACAGUCCGACGAUCUAUCCGGAUGCCAGUCUUUAAGUAAUUGAAGUGCCGUCCAUAUAAUUCAAAAAACUCGGUUAAGAGAACACCAUAGUUUGUAUUGGGGAUGCAAGCAUCUUCCCUGGGAUGUAACUGAAGCAACAGAGGAUUGAGCAUCA
B16: chr19:8913112:8913113:-_ENSMUSG00000071658_ENSMUST00000096259|mus_hu|FALSE|FALSE (ssRNA)
RNA: GGGAGUUCUACAGUCCGACGAUCAAGCUGGCUUCAAUCUUAAGCUGUUCCACCAUCUUGCGUGCUUGCCCAAUACUCAUAGUGCUGUUCACCGGGGUCUCACCUUUCAUCCUGAAGCCACAAGCGGCAGUAGCAGCCCUGGGUCAACAGAGGAUUGAGCAUCA
B17: chr7:151048522:151048523:+_ENSG00000013374_ENST00000566856|hu_mus|hu_hu_hu_mus_True|28_68 (ssRNA)
RNA: GGGAGUUCUACAGUCCGACGAUCCUGUUUCUUAUUUAUUACGAUCUUGAUGUAAUUUUCUUGAAAUCCAAAGGUUUCAGCUAUUUGACACCUCAGGUCUCUACCAGUGAUGUGCAAGCGGGUCUCCAACAAGCUUUUCUUAUCCAACAGAGGAUUGAGCAUCA
B18: chr2:100010981:100010982:+_ENSG00000158417_ENST00000289371|hu_hu|FALSE|FALSE (ssRNA)
RNA: GGGAGUUCUACAGUCCGACGAUCUUCCAACAUCACUGAAGCCUUCAUAACAUCUUUUUUAUGCACUGGGCCAAUGUUAAUUCCUGCAUAGGGCACUUCUGAUGUUUUCAGAAAUUCCAGUAGAGCUUCCAAAGAACCCAGUGUCAACAGAGGAUUGAGCAUCA
B19: chr8:95500983:95500984:-_ENSG00000164944_ENST00000437199|hu_hu|hu_hu_hu_mus_True|58_108 (ssRNA)
RNA: GGGAGUUCUACAGUCCGACGAUCAGAAGGAUUUUUACGAGUAAAGGACCGUACAUGACGGCCUCUACCACUGCCUCCCACUAACAACUUUCCUCUCGAGCCUCCACUGCCGCUAUUUGUACUAGCCCAGGACGGUCCCAGGCCCAACAGAGGAUUGAGCAUCA
B20: chr16:75691255:75691256:+_ENSG00000166848_ENST00000300086|hu_hu|motif|central (ssRNA)
RNA: GGGAGUUCUACAGUCCGACGAUCAAAGUUAUAUUUAUUUUCAACAAUGAAAACAACACAACAAAGUGGAGUCAAUCCACGGAUUUUUUAAAUCUAACACAAUGCUUAGCACAAACAAUACUCAAUAAAUAACACAUUAACCAACAACAGAGGAUUGAGCAUCA
B21: chr17:73774127:73774128:-_ENSG00000132475_ENST00000254810|hu_mus|FALSE|FALSE (ssRNA)
RNA: GGGAGUUCUACAGUCCGACGAUCUGACAAGACUCCCCACCACUUGUGAAUGUAAAACAUUUAAUUUAAAAAUGUUGAACACUACAAUAUAUAAAAUAGCUAUUAUAAAUGCACAUAGUGUAUUCUAUAGCUGCCAGGUUUACUCAACAGAGGAUUGAGCAUCA
B22: chr14:89338683:89338684:+_ENSG00000165533_ENST00000346301|hu_hu|hu_hu_hu_mus_False|68_78 (ssRNA)
RNA: GGGAGUUCUACAGUCCGACGAUCGUGGUUGUUGUGGACCAGGGCCAGCCUGAAGCACUGAUGGGCCAAAUUUGUAUCUCCGAUUCCCACAGCUAUGUGCCCCAGGUUGUACCAGACAUCAGCUGCCUCUUCUUCAUUUUCAGCCAACAGAGGAUUGAGCAUCA

Target: T1, UNK ZnF1-3 (human, UniProt Q9C0B0 31-174)
T1 sequence: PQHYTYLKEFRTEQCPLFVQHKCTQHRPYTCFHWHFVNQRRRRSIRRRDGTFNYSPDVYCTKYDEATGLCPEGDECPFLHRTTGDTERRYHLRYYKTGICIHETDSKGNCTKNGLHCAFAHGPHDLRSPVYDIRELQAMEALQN
Test: nsRBNS (natural sequence RNA bind-n-seq); RBNS binding buffer (assumed for nsRBNS): 25 mM Tris pH 7.5, 150 mM KCl, 3 mM MgCl2, 0.01% Triton X-100, 500 ug/ml BSA, 20 U/ml SUPERase-In, 4 C; UNK is unkempt and MSI1 is Musashi-1; names of the RNAs are library labels; protein concentration not given here; high values mean tight binding

| Binder | binding signal [enrichment R] |
| --- | --- |
| B1 | 0.96 |
| B2 | 0.931 |
| B3 | 1.46 |
| B4 | 0.439 |
| B5 | 0.923 |
| B6 | 0.453 |
| B7 | 1.47 |
| B8 | 0.675 |
| B9 | 0.721 |
| B10 | 0.454 |
| B11 | 1.34 |
| B12 | 0.734 |
| B13 | 0.841 |
| B14 | 0.664 |
| B15 | 1.67 |
| B16 | 1.02 |
| B17 | 0.594 |
| B18 | 0.491 |
| B19 | 0.931 |
| B20 | 1.22 |
| B21 | 1.14 |
| B22 | 0.775 |
